In all, about 310,000 compounds went through this assay and about 2,200 (0.71%) showed an effect of 50% or more. Effects have a minus sign here. Some of the results follow.

The target of the test is human ether-à-go-go-related gene (hERG) potassium channel (human, UniProt Q12809). Put plainly: primary screen, population patch clamp on CHO cells stably expressing hERG.
Sequence of human ether-à-go-go-related gene (hERG) potassium channel (Q12809 whole entry, looked up): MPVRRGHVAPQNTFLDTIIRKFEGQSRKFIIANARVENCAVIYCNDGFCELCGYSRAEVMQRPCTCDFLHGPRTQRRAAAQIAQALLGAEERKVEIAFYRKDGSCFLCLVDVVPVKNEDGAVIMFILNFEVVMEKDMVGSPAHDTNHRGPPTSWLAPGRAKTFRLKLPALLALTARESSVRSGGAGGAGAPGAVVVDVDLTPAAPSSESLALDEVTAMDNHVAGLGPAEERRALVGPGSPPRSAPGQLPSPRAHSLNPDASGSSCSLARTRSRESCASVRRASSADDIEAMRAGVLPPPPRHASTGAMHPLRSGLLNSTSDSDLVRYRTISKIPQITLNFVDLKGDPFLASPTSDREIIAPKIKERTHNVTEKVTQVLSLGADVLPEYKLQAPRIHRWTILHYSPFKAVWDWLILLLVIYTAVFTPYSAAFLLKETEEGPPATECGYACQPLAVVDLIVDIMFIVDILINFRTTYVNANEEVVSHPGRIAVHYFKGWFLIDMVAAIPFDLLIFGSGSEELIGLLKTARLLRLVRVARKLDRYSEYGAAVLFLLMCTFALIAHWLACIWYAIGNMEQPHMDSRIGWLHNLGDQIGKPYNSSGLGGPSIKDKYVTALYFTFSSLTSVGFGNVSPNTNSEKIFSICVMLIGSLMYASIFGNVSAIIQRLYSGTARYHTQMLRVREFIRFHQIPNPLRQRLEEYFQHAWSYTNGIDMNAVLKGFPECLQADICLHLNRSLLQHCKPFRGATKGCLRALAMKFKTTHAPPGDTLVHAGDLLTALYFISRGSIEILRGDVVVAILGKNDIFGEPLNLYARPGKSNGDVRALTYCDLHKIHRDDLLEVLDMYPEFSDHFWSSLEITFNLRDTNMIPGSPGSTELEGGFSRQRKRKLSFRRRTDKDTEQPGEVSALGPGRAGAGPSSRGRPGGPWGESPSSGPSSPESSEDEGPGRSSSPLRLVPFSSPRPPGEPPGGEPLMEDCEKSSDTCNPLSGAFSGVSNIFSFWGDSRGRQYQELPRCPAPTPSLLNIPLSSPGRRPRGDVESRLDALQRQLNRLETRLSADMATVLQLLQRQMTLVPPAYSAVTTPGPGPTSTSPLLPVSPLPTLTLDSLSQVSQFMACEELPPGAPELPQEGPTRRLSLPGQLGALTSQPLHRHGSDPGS
In the case of `O=C(NC1CCCC1)C(c1ccc(F)cc1)N(C(=O)Cc1cccs1)c1ccc2c(c1)OCCO2` (stereo not drawn), the “hERG current change (%, negative = inhibition) at 1uM” value was 57.9%. Take `NC(=O)COc1ccc(Nc2nnc(-c3ccc(O)cc3)c3ccccc23)cc1`: the “hERG current change (%, negative = inhibition) at 1uM” value is 2.61%. For `CC1(C)Cc2c(sc(NC(=O)C(=O)N3CCOCC3)c2C#N)CO1`, the “hERG current change (%, negative = inhibition) at 1uM” value amounted to 13.8%. On to `CCc1ccc(NC(=O)CSc2nc3ccccc3c(=O)n2CCN2CCOCC2)cc1`, for which the “hERG current change (%, negative = inhibition) at 1uM” value is listed as -10.3%.

`O=C(CN1CCN(c2ccccc2)CC1)Nc1ccc(F)cc1`: the “hERG current change (%, negative = inhibition) at 1uM” value is reported as -21.6%. Regarding `CCOC(=O)/C(C#N)=C/c1c(N2CCN(C)CC2)nc2c(C)cccn2c1=O`, the “hERG current change (%, negative = inhibition) at 1uM” value came out at 8.32%.

Consider `CC(C(=O)N1CCCC1)N(C)CC(=O)Nc1cccc(F)c1` (stereo not drawn), for which the “hERG current change (%, negative = inhibition) at 1uM” value turned out to be 11.9%. Next, `Cc1nn(-c2ccccc2)c(NC(=O)c2cccs2)c(-c2ccccc2)c1=O`: 15.1%; `c1ccc(CNc2c3c(nc4ncnn24)CCC3)cc1`: 10.1%.

Regarding `c1cc2c(nn1)CCc1nonc1-2`, the “hERG current change (%, negative = inhibition) at 1uM” value is 12.9%. In the case of `CCN1C(=O)[C@H]2[C@@H](c3ccc(C)cc3)N3C(=O)N(c4cccc(Br)c4)C(=O)[C@@]3(CC)[C@H]2C1=O`, the “hERG current change (%, negative = inhibition) at 1uM” value stood at 11.9%. Regarding `COc1ccc(NC(=O)NNC(=O)c2cc3ccccc3cc2O)cc1`, the “hERG current change (%, negative = inhibition) at 1uM” value is recorded as 12.8%. For `CC(=O)Oc1ccc2c(=O)c(N3C(=O)c4ccccc4C3=O)c(C)oc2c1`, the “hERG current change (%, negative = inhibition) at 1uM” value came out at 7.79%. Take `COc1ccc(S(=O)(=O)N(Cc2ccccc2)c2ccccc2C(=O)Nc2ccccc2C(=O)NCc2ccco2)cc1`: the “hERG current change (%, negative = inhibition) at 1uM” value was determined as 12.6%. Under `COc1cc(C(=O)NNc2nc3cc4c(cc3s2)OCO4)cc(OC)c1OC` stands 17%. Under `CC(=O)N1c2ccc(S(=O)(=O)N3CCCC(C(=O)Nc4cccc(Cl)c4)C3)cc2CC1C` (stereo not drawn) stands 12.5%; under `CCOc1ccc(NC(=O)C(CC(=O)O)Cc2ccccc2)cc1` (stereo not drawn), 13.8%. Consider `COC(=O)c1ccccc1NC(=O)COc1ccc(S(=O)(=O)NC(C)C)cc1`, for which the “hERG current change (%, negative = inhibition) at 1uM” value is 17.3%. For the molecule `CC(C)(CC(=O)O)CC(=O)N1CCN(c2nc3ccc(Cl)cc3s2)CC1`, the “hERG current change (%, negative = inhibition) at 1uM” value is on record as 3.65%.

On to `COc1ccc(NC(=O)c2ccccc2NC(=O)C2CCCO2)cc1` (stereo not drawn), for which the “hERG current change (%, negative = inhibition) at 1uM” value is 15.3%. Under `COC(=O)C(C)Sc1ncnc2c1c(-c1ccccc1)cn2-c1ccc(OC)cc1` (stereo not drawn) stands 7.18%. Consider `COc1ccccc1Nc1nnc(SCc2cc(=O)n3ccsc3n2)s1`, for which the “hERG current change (%, negative = inhibition) at 1uM” value was determined as 5.82%. For the molecule `Cc1c(NC(=O)c2c(O)c3ccccc3n(C)c2=O)c(=O)n(-c2ccccc2)n1C`, the “hERG current change (%, negative = inhibition) at 1uM” value was 20.6%. As to `CCS(=O)(=O)N1CCC(C(=O)NCc2ccc(F)cc2Cl)CC1`, the “hERG current change (%, negative = inhibition) at 1uM” value was determined as 10.6%. Next, `COc1cc(C2CC(=O)Nc3ccccc3S2)cc(OC)c1OC` (stereo not drawn): -5.45%; `CSc1ccc(S(=O)(=O)NCc2ccc(Cl)cc2Cl)cc1`: -7.26%. As for `CCOc1ccc(CN2CCC(n3nccc3NC(=O)C3CC3)CC2)cc1CO`, the “hERG current change (%, negative = inhibition) at 1uM” value stood at 7.17%. On to `C#CC(CO)N(CCN(Cc1ccccc1)C(C#C)CO)Cc1ccccc1` (stereo not drawn), for which the “hERG current change (%, negative = inhibition) at 1uM” value was determined as 9.58%. With `O=C1CS/C(=N/N=C/c2ccccc2)N1c1ccc(O)cc1`, the “hERG current change (%, negative = inhibition) at 1uM” value is reported as 16.1%.

In the case of `O=C(c1ccccc1F)N(Cc1ccc(F)cc1)C1CCS(=O)(=O)C1` (stereo not drawn), the “hERG current change (%, negative = inhibition) at 1uM” value came out at 9.41%.

With `N/C(=N\OS(=O)(=O)c1ccccc1)c1cccnc1`, the “hERG current change (%, negative = inhibition) at 1uM” value is 6.87%. For the molecule `Cc1ccc(Sc2cc(NCCCO)c([N+](=O)[O-])c3nonc23)cc1`, the “hERG current change (%, negative = inhibition) at 1uM” value was determined as 5.43%. For `COc1ccc(Cc2nc(-c3ccc(-n4cccc4)cc3)no2)cc1OC`, the “hERG current change (%, negative = inhibition) at 1uM” value is on record as 3.64%. `Cc1cc(C)cc(N(CC(=O)Nc2cccc(C)c2C)S(=O)(=O)c2c(C)[nH]c(=O)[nH]c2=O)c1`: the “hERG current change (%, negative = inhibition) at 1uM” value came to 17.1%. On to `CCCC(=O)OCC(=O)Nc1cc(C(C)(C)C)nn1-c1ccccc1`, for which the “hERG current change (%, negative = inhibition) at 1uM” value was found to be 11.6%. Under `COc1ccccc1N1CCN(C(=O)CNC(=O)c2ccc(Cl)cc2Cl)CC1` stands 11.2%; under `COc1ccc(S(=O)(=O)N(CC(=O)NC2CC2)Cc2ccccc2)cc1`, 20.1%. As for `Cc1ccc(C)c(NC(=O)Cc2ccc(S(=O)(=O)N3CCCCC3)s2)c1`, the “hERG current change (%, negative = inhibition) at 1uM” value came out at 0.363%.

For `Cc1ccc(-n2c(CCC(=O)O)ccc2-c2cccs2)cc1`, the “hERG current change (%, negative = inhibition) at 1uM” value is 6.92%. Next, `O=c1cc(CSc2nnc(-c3cccnc3)n2-c2ccccc2F)nc2sccn12`: 9.55%; `COc1ccc(C2=NCN(c3ccc(C)cc3)C(=S)N2)cc1`: 11.8%; `Cc1cccc(NS(=O)(=O)c2cccc(C(=O)NCCCN3CCCC3=O)c2)c1`: 7.25%.

For `O=C(CNc1cccc([N+](=O)[O-])c1)NCCCc1ccccc1`, the “hERG current change (%, negative = inhibition) at 1uM” value is reported as -29.5%. Consider `CC(C)(C)n1nnnc1C(c1ccc(Cl)cc1)N1CCSCC1` (stereo not drawn), for which the “hERG current change (%, negative = inhibition) at 1uM” value is -2.57%.

For the molecule `COC(=O)c1ccc(NC(CC(C)C)C(=O)OC)c([N+](=O)[O-])c1` (stereo not drawn), the “hERG current change (%, negative = inhibition) at 1uM” value is given as -0.222%. Next, `O/N=C1/CC/C(=N\O)c2nn(-c3ccccc3)nc21`: 11.5%; `CC1CN(C(=O)COC(=O)c2ccc(Cl)c(S(=O)(=O)N3CCCCC3)c2)CC(C)O1` (stereo not drawn): 2.27%. Take `COc1ccccc1N1C(=O)CC(=O)NC1=O`: the “hERG current change (%, negative = inhibition) at 1uM” value was 16.9%. Next, `COc1ccc(S(=O)(=O)Nc2ccccc2C)cc1C(=O)N1CCOCC1`: 19.8%; `Cc1cccc(C2c3[nH]c4ccccc4c3CCN2C(=O)c2ocnc2C)n1` (stereo not drawn): 8.04%; `CCN(CC)C(=S)SC1CCCCN(C(=O)c2ccc(F)cc2)C1=O` (stereo not drawn): 9.25%. `COCCn1c(SCC(=O)Nc2ccc(S(N)(=O)=O)cc2)nc2ccccc21`: the “hERG current change (%, negative = inhibition) at 1uM” value worked out at 0.914%. In the case of `Cc1cccc(C)c1OCC(=O)Nc1cccc(-c2nnc(-c3ccccc3)o2)c1`, the “hERG current change (%, negative = inhibition) at 1uM” value was 10.1%. Consider `COc1ccc(NC(=O)C2CC(=O)N(c3ccccc3C)C2)c(OC)c1` (stereo not drawn), for which the “hERG current change (%, negative = inhibition) at 1uM” value was 9.16%.

Consider `O=C(Cn1c(=O)oc2ccccc21)NCCc1ccccc1`, for which the “hERG current change (%, negative = inhibition) at 1uM” value amounted to 4.46%.

As for `CCOC(=O)c1c(NC(=O)/C=C\C(=O)O)sc(C)c1-c1ccccc1`, the “hERG current change (%, negative = inhibition) at 1uM” value worked out at 2.5%. Regarding `Cc1csc(SCC(=O)NC(=O)NCc2ccccc2)n1`, the “hERG current change (%, negative = inhibition) at 1uM” value stood at 2.15%. With `Cc1cc2occ(CC(=O)N(C)CC(=O)Nc3cccc(F)c3)c2cc1C`, the “hERG current change (%, negative = inhibition) at 1uM” value turned out to be 1.48%. For `O=C(Nc1ccc(Nc2ccccc2)cc1)c1ccc(Br)cc1`, the “hERG current change (%, negative = inhibition) at 1uM” value worked out at 7.85%. For `CCOC(=O)N1CCN(Cc2nc(N)nc(Nc3ccc(C)cc3C)n2)CC1`, the “hERG current change (%, negative = inhibition) at 1uM” value was found to be 3.69%. Next, `Cc1ccc(NC(=O)CSc2nc(N)c3cc4c(nc3n2)CCCC4)cc1`: 10%. Take `COc1ccc(Cl)cc1C(=O)NNC(=O)CN1C(=O)C2CC=CCC2C1=O` (stereo not drawn): the “hERG current change (%, negative = inhibition) at 1uM” value is recorded as 10.8%.

On to `COc1ccc(C(=O)/C=C/N(C)C)cc1OC`, for which the “hERG current change (%, negative = inhibition) at 1uM” value is given as 7.71%. `Cc1cc(C(=O)CSc2nn3c(=O)c(C(C)(C)C)nnc3s2)c(C)n1C1CC1`: the “hERG current change (%, negative = inhibition) at 1uM” value turned out to be 26.9%. Regarding `Cc1ccc(S(=O)(=O)N2CCN(C(=O)n3ccnc3)CC2)cc1`, the “hERG current change (%, negative = inhibition) at 1uM” value is reported as 7.26%.

Regarding `CN(CCc1ccccn1)C1CCCN(S(=O)(=O)c2ccc(F)c(Cl)c2)C1` (stereo not drawn), the “hERG current change (%, negative = inhibition) at 1uM” value is reported as -15.6%.

As to `CS(=O)(=O)O.Oc1ccc(C2CNCCc3c2cc(O)c(O)c3Cl)cc1` (stereo not drawn), the “hERG current change (%, negative = inhibition) at 1uM” value is recorded as -0.982%. In the case of `COc1ccc(S(=O)(=O)N2CCC(C(=O)NCCc3ccccc3)CC2)cc1`, the “hERG current change (%, negative = inhibition) at 1uM” value came out at 9.96%. On to `COC(=O)c1ccc(-n2cc(-c3ccc(OC)cc3)[nH]c2=S)cc1`, for which the “hERG current change (%, negative = inhibition) at 1uM” value was 26.3%.

Regarding `CCN(CC)c1ccc(/C=c2/sc3nnc(-c4ccccc4C)n3c2=O)cc1`, the “hERG current change (%, negative = inhibition) at 1uM” value is given as 11.9%.

With `CCOC(=O)C(NC(=O)CC)(N1CCc2ccccc2C1)C(F)(F)F` (stereo not drawn), the “hERG current change (%, negative = inhibition) at 1uM” value is -2.24%.

Turning to `CCCCN1CC(=O)N2[C@H]3c4ccc(OC)cc4OC[C@@H]3[C@H](C(=O)OCC)[C@]2(C)C1=O`, the “hERG current change (%, negative = inhibition) at 1uM” value amounted to 16.8%. For `Cc1ccc2nc(-c3ccncc3)c(NC3CCCCC3)n2c1`, the “hERG current change (%, negative = inhibition) at 1uM” value came out at 10.7%. With `C(=N\Nc1ccc2nncn2n1)/c1ccccn1`, the “hERG current change (%, negative = inhibition) at 1uM” value worked out at 16.5%. Take `Cc1ccc[n+](CC(=O)Nc2ccc([N+](=O)[O-])cc2)c1.[Cl-]`: the “hERG current change (%, negative = inhibition) at 1uM” value is 17.6%. For the molecule `Cc1cccc(NNC(N)=S)c1`, the “hERG current change (%, negative = inhibition) at 1uM” value was 12.4%.

As for `Cc1cnc(C(=O)NCC(c2ccccc2)c2ccccc2)cn1`, the “hERG current change (%, negative = inhibition) at 1uM” value is given as -1.77%. Turning to `O=C(O)c1cccc(NS(=O)(=O)c2ccc3c(c2)C(=O)c2ccccc2C3=O)c1`, the “hERG current change (%, negative = inhibition) at 1uM” value was 16.7%.

On to `COc1ccc(C2C(C(C)=O)=C(O)C(=O)N2c2nc3ccccc3s2)cc1OC` (stereo not drawn), for which the “hERG current change (%, negative = inhibition) at 1uM” value was 15%. In the case of `CNC(C)c1ccc(S(N)(=O)=O)cc1` (stereo not drawn), the “hERG current change (%, negative = inhibition) at 1uM” value worked out at 17.7%. On to `Cc1nnc(SCCC(=O)Nc2ccc(F)cc2)s1`, for which the “hERG current change (%, negative = inhibition) at 1uM” value is recorded as 5.98%. In the case of `COc1cc(CO)cc(Br)c1OCC(=O)Nc1cccc2ccccc12`, the “hERG current change (%, negative = inhibition) at 1uM” value worked out at 0.893%. `C=CCn1c(SCC(=O)Nc2ccccc2CC)nnc1-c1ccncc1`: the “hERG current change (%, negative = inhibition) at 1uM” value is 1.02%. As to `O=S(=O)(Nc1ccccc1Cl)c1ccc(NS(=O)(=O)c2cccs2)cc1`, the “hERG current change (%, negative = inhibition) at 1uM” value amounted to 12.6%. `Cc1ccc(OCc2cn3cccnc3n2)cc1`: the “hERG current change (%, negative = inhibition) at 1uM” value is 6.19%. Under `CNC(=O)c1ccc(Nc2nnc(-c3ccc(C)c(S(N)(=O)=O)c3)c3ccccc23)cc1` stands 9.63%. Next, `CCNC(=O)C1(c2ccccc2)CCCC1`: 5.42%.
